This note sets out measurements from US20080292704A1 (published 2008).

This assay addresses T1, HSA1R4 (human, UniProt P02768 25-221).
T1 construct: range 1-197; also called R4 ligand; HCH2 polymer
The assay is described as follows: ELISA on coated recombinant receptor (4 µg/mL), HRPO-Protein G detection. (ELISA stands for enzyme-linked immunosorbent assay.)

B1: recombinant FcγRIIIa-158V ligand binding domain, 6xHis tagged (receptor)
chain: not shown
As for B1, the binding result is on record as “binds”.
